The campaign covered roughly 410,000 compounds. About 6,400 (1.6%) were called active. The inconclusive results got no clear call from the source; some entries with a clear call stand among them for comparison. Calls follow the shape of the dose curve; as a rule, active = well fitted inhibition curve with a large enough effect; inconclusive = small, poorly fitted or top-dose-only effect; inactive = no such curve, though single readings can be large or run the other way. Potencies of inconclusive entries are left out as doubtful fits.
biological target: Glucagon-like peptide 1 receptor (Homo sapiens) (UniProt P43220); assay: qHTS of GLP-1 Receptor Inverse Agonists (Inhibition Mode); settings: HEK293 GLP-1R CRE-luciferase, luminescence, 24 h, GLP-1R form is constitutively active; activity change, negative = inhibition: at 38.3 µM (top of the series) unless noted; also: nearly all actives have a fitted effect of over 55% in size
Procedure, shortened: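 qHTS in 1536-well format: reporter HEK293 cells expressing constitutive GLP-1R activity in DMEM + 10% Nu serum, 24 hr with compounds at 37 deg C, luminescence read after 12 min with detection reagent.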
% is scaled to controls: 0 for no effect and ±100 for the full control effect; potency is read from the fitted curve at half-maximal effect; tags tell the direction and shape of the fitted curve.

UniProt P43220, sequence (P43220 whole entry, looked up): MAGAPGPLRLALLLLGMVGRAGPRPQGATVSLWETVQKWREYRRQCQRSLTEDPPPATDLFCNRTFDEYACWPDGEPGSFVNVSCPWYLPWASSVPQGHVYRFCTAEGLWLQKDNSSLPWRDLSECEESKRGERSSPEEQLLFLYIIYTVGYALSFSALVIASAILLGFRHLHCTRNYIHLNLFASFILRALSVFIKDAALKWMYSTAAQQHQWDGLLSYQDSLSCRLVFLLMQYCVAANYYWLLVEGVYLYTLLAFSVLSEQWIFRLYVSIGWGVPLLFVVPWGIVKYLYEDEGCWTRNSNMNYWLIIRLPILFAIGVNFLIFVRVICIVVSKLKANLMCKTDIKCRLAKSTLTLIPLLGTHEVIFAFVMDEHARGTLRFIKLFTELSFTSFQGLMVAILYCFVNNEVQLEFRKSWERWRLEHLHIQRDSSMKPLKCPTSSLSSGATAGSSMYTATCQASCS

Row | SMILES | Potency | activity change, negative = inhibition
1 | Cc1[nH]n(-c2ncc(-c3ccc(Cl)cc3)s2)c(=O)c1C(c1ccc(Cl)cc1)C(C#N)C#N (stereo not drawn) | inconclusive [inhibitor, single point] | 
2 | CSc1cccc(CNC(=O)C2CCC(=O)N(CC3CCCCC3)C2)c1 (stereo not drawn) | inconclusive [inhibitor, partial curve, poor fit] | 
3 | CCn1c(C)[n+](CCOCC[n+]2c(C)n(CC)c3cc(Cl)c(Cl)cc32)c2cc(Cl)c(Cl)cc21 |  | inactive: -0.55%
4 | CCc1ccc(-c2cn3c(n2)sc2cc(C(=O)NCCC4=CCCCC4)ccc23)cc1 |  | inactive: 23.5%
5 | CCOC(=O)c1ccc(NC(=O)CSc2cn(CC(=O)N3CCCC3)c3ccccc23)cc1 |  | inactive: -19.3%
6 | CS(=O)(=O)c1ccccc1C(=O)N(CCC1=CCCCC1)c1c(N)n(Cc2ccccc2)c(=O)[nH]c1=O | inconclusive [inhibitor, single point] | 
7 | Cc1c(C)c(C)c(CO/N=C/c2cccs2)c(C)c1C | inconclusive [inhibitor, partial curve, poor fit] | 
8 | COc1nccc(C(F)(F)F)c1C(=O)NC(=O)Nc1c(C)cccc1C | inconclusive [inhibitor, full curve, poor fit] | 
9 | O=C(Nc1ccc(N2CCOCC2)cc1)c1cn2ccccc2n1 | inconclusive [inhibitor, full curve, poor fit] | 
10 | CCC(=O)Nc1ccc(NC(=O)c2ccco2)c(OC)c1 |  | inactive: 76.2%
11 | Cc1ccc(OCCOc2ccc(Br)cc2)c([N+](=O)[O-])n1 | inconclusive [inhibitor, single point] | 
12 | Cc1ccc(CC(=O)Nc2ccc3c(c2)N(C)C(=O)c2ccccc2S3)cc1 | inconclusive [inhibitor, partial curve, poor fit] | 
13 | COCCn1c(C)cc(C(=O)COc2ccc(C)nc2[N+](=O)[O-])c1C | inconclusive [inhibitor, partial curve, poor fit] | 
14 | O=C(c1ccc(Cl)cc1)C(CN1CCCCC1)c1ccccc1 (stereo not drawn) | inconclusive [inhibitor, single point] | 
15 | CCOC(=O)C1Nc2ccccc2C2C(O)C(O)CC12 (stereo not drawn) |  | inactive: 16.8%
16 | Cc1ccc(-c2nc(=S)c3c(n2Cc2ccco2)CCCC3)cc1 | inconclusive [inhibitor, partial curve, poor fit] | 
17 | Cc1ccccc1C(=O)Nc1sc2c(c1C(=O)N1CCCCC1)CCC(C)C2 (stereo not drawn) | inconclusive [inhibitor, partial curve, poor fit] | 
18 | Cc1cc(NC(=O)c2cc(-c3ccncc3)nc3ccccc23)ccc1Br | inconclusive [inhibitor, partial curve, poor fit] | 

— PubChem BioAssay AID624417 (National Center for Advancing Translational Sciences (NCATS), 2012)
